# Results as given in publication PMC5038302 (Antimicrobial Agents and Chemotherapy, 2016).
# For part of its entries the source gives two or more results. This list holds those alone. An entry can have further records. Results that share an entry appear to be repeats on other runs, samples or individuals. Marks in square brackets tell the records apart. A, B and so on number the origins entry by entry.
# Tested on: SPM-1
# Assay type: biochemical
# Conditions: 80 μM di-Zn(II)-SPM-1, 4 mM avibactam, Tris-D11 50 mM pH 7.5, 24 h
# Method: Typical experimental parameters for Carr-Purcell-Meiboom-Gill (CPMG) NMR spectroscopy were the following: total echo time, 40 ms; relaxation delay, 2 s; and number of transients, 264 ([31]). The PROJECT-CPMG sequence (90°x-[τ-180°y-τ-90°y-τ-180°y-τ]n-acq) was applied. Water suppression was achieved by presaturation. Prior to Fourier transformation, the data were multiplied with an exponential function with 3-Hz line broadening.
smiles,measurement,value
NC(=O)[C@@H]1CC[C@@H]2CN1C(=O)N2OS(=O)(=O)O [avibactam],Avibactam hydrolysis observed by NMR,slow [passage A] and hydrolysis is catalyzed slowly [passage B]
